This passage reports growth results from PubChem BioAssay (NCI).

For one assay, the system named is HOP-62 NSCLC. As to the kind of experiment: NCI-60 one-dose screen, 48 h (100 = growth as untreated, 0 = no growth, -100 = all killed). To be noted: 25 µM.
The test system of the next assay is NCI-H460 lung. The assay is described as above. To be noted: 0.25 µM.

Some structures have more than one record in an assay (separate samples or runs), and their calls can disagree.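 Single-dose data. Exposure time 48 hours. Values below 10 considered active.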 A number of entries come with more than one value. This list holds those alone. The source may hold further records. The screen tested this drug many times, at the concentration stated with the values; one value stands for one run. Signs of the kind (2×) stand for listed records that agree.

Take `COc1cccc2c1C(=O)c1c(O)c3c(c(O)c1C2=O)C[C@@](O)(C(=O)CO)C[C@@H]3OC1CC(N)C(O)C(C)O1` (stereo not given in full): the growth entry with HOP-62 NSCLC (runs of 1998) was “active: -26.9, -35, -52.2, -38.9, -2.74, -30, -51.1, -33.5, -57.5, -35.4, -17.9, 0.946, -32, -60.5 (2×), -44.3, -24.3, -17.2, -25.9, -20.4, -7.17, -21.3% and inactive: 25.5%”; in the assay with HOP-62 NSCLC (runs of 1999) it was “active: 1.7, -25.6, -39.9, -20.3, -83.3, 4.1, -48.5, -60.2, -8.33, -63.3, 5.32, -100, -53, -66.6%”; with HOP-62 NSCLC (runs of 2000), “active: -7.53, -100, 0.184, -12.9%”; in the assay on NCI-H460 lung (runs of 2006) it was “inactive: 14.6% and active: 3.93%”; with NCI-H460 lung (runs of 2007), “inactive: 10.2 (2×), 12.3, 15.2, 13.2, 12.7, 13.3, 10.8, 11.6, 11.3, 15 (2×), 14.9, 10.1, 26.1, 24.9, 24.8, 10.9, 10.7, 13.5% and active: -2.86, 4.33, 5.79, 5.56, 8.96, 8.55, 9.03, 0.772, 6.94, 7.56, 9.4, 9.53, 9.54, 8.89, 8.52, 5.44, -4.24, 9.27, 9.15%”; with NCI-H460 lung (runs of 2008), “inactive: 10.8 (2×), 12.6, 16.4, 11.4 (2×), 11.9, 102, 17.9, 17.8, 10.1, 16.6, 16.8, 13.6 (2×), 16.1, 11.3% and active: 9.46, 6.42, 9.41, 6.5, 9.54, 9.9, -6.55, 7.19, 1.64, 9.01, 6.88, 8.17, 4.9, 4.46, 9, 5.73, 5.11, 5.23, 7.56, 5.94, 7.22, 7.82, -0.823, 8.03, -7.39, 8.75, 9.48, -2.5, 4.96, 7.37, 7.81, 9.64, 9.08, 6.8, 7.15, 5.39%”. Besides, the growth result is “active: 8.74, 6.68, 7.2, 4.99, -3.01, 7.8, 8.9, 8.52, 7.16, 9.73, -23.8, -25.6, 8.1, 5.82, 7.93 (2×), 5.66, 7.68, 6.21, 4.8, 6.15 (2×), 6.58, 3.57, 3.17, 9.49, 7.63, 8.04, 2.92, 8.64, 7.09, -3.28, 9.99, 8.35, 5.25, 1.29, 2.77, 7.83, -6.26, -32.8, 8.56, 3.29, 6.22, 4.25, 7.82, 0.215, -7.32, 5.39, 9.98, 7.25, 9.94, 8.88, 8.6% and inactive: 12.9, 10.9, 12.3, 11.7, 13.4, 15.4, 13, 14.8, 10.2, 13.6, 13.9, 14.9, 20.1, 15.1, 16.8, 14.5, 17%” in the assay with NCI-H460 lung (runs of 2009); “inactive: 13.7, 10.8, 11.7, 12, 10.6, 11.6 (2×), 12.3 (2×), 10.4 (2×), 14.6, 12.7, 11.5, 15.3, 14.9% (2×) and active: 2.27, 6.67, 9.82, 9.61, 5.7, 3.4, 4.73, 2.5, 4.49, 5.58, 7.78, 8.2, 7.71, 6.45, 7.08, 6.33, 9.75, 7.77, 8.92, 8.21, 9.68, 7.53, 4.57, 2.79, 6.04, 5.67, 2.94, 6.94, 8.9, 8.47, 6.42, 9.35, 6.81, 5.93%” with NCI-H460 lung (runs of 2010); “active: 7.08, 8.11 (2×), 6.59, 6.74, 8.82, 9.81, 9.49, 6.85, 8.81, 9.68, 6.73, 9.78, 6.23, 8.36, 6.4, 7.72, 6.49, 7.49, 5.16, 5.65, 8.23, 8.85, 8.47, 9.67, 6.07, 6.96, 9.23, 7.45, 7.42, 8.5, 9.19, 6.33, 9.24, 8.87, 6.71, 5.9, 9.62, 5.6, 7.61, 7.02, 8.74, 8.67% and inactive: 15.4, 11.7, 15.2, 11.8, 12.6, 10.9, 13.4, 10.6, 13.9, 10.1 (3×), 10.8, 11.1, 13.1, 10.2, 16%” with NCI-H460 lung (runs of 2011); “active: 8.4, -1.82, 8.68, 6.7, 9.23, 9.44, 9.81, 9.4, 5.95, 4.87, 3.78, 6.8, 3.37, 6.85, 6.03, 1.86, 4.7, 3.41, 5.26, 6.92, 8.78, 9.11, 9.31, 6.5, 9.14, 6.93, 8.76, 7.63, 4.32, 7.82, 7.87, 4.07, 8.98, 7.98, 6.86, 1.97% and inactive: 10.6, 10.7, 17.1, 10, 11.9, 13.3 (2×), 10.8, 14.6 (3×), 12.6, 11.1, 10.1 (2×), 15.2, 14.7, 13.1 (2×), 11.3 (3×), 14.1, 13.9, 13.5, 14.5, 14, 13.4, 14.4, 16%” with NCI-H460 lung (runs of 2012); “inactive: 10.4 (2×), 12.1 (3×), 10.6 (2×), 10.1 (2×), 13.6 (2×), 12.9, 10.2, 14.6, 12.3, 12.6, 10.9 (2×), 15.6, 15, 15.2, 12, 10.8, 11.6, 13.2% and active: 9.02, 8.35, 8.52, 6.75, 9.91, 9.98, 9.95, 8.17, 7.35, 9.64, 7.69, 8.55 (2×), 9.1, 8.38, 8.66, 7.73, 7.49, 8.58 (2×), 8.97, 8.43, 9.71, 9.57, 7.24, 5.7, 9.27, 6.39, 8.84, 8.93, 7.07, 4.41, 5.31, 2.62, 6.38, 4.61, 4.51, 7.88, 5.97, 6.49, 7.86, 4.81, 6.29, 5.44, 6.56, 5.71, 7.47%” in the assay with NCI-H460 lung (runs of 2013); “active: 6.16 (2×), 5.83, 9.4, 4.73, 3.85, 6.04, 3.37, 5.63, 5.78, 7.02, 6.62, 6.2, 7.52, 7.41, 8.57 (2×), 6.24 (2×), 8.89, 6.19, 8.82, 8.32, 9.42, 8.94 (2×), 6.65 (2×), 8.61, 8.5, 6.85, 8.92, 9.94, 8.22, 9.25, 9.73, 9.96, 8.95, 9.27, 9.17, 7.6, 8.07, 9.59, 9.19, 5.64, 5.84, 9.61, 7.21, 9.08, 4.63, 9.16, 5.69, 6.41 (2×), 7.18, 8.38, 9.26, 8.47, 9.34, 7.85, 5.85% and inactive: 10.7 (3×), 11.4, 10.8 (2×), 11.5 (2×), 13.1, 12.1, 10.9, 10.6, 13.2, 11.3, 10.1%” in the assay on NCI-H460 lung (runs of 2014). Besides, the growth result in the assay on NCI-H460 lung (runs of 2015) is “inactive: 10.2, 11.6, 10.9, 13.6, 10.1, 12.7, 13.7, 10.6, 10.4% and active: 5.99, 5.28, 6.46, 4.97, 9.2, 9.4 (3×), 8.67, 7.7, 7.38, 9.54, 6.5, 5.46, 6.27, 3.45, 4.79, 5.63, 6.47, 5.87, 5.27, 3.81, 7.03, 5.66, 4.92, 6.82, 5.33, 5.38, 4.67, 5.17, 7.28, 5.6, 8.82, 7.78, 8.63, 8.38, 5.96, 4.77, 8.9, 2.37, 5.13, 9.09, 9.27, 5.22, -0.411, 2.71, 6.53, 2.5, 2.99, 4.06, 2.43, 1.89, 3.57, 8.86, 4.56, 5.62, 6.37, 4.91, 6.81, 5.93, 9.13, 7.53 (2×), 8.83, 8.27, 9.1, 8.05, 9.46, 8.62, 8.02, 8.57, 7.45, 8.22, 9.37, 6.61, 8.21, 7.39, 9.44, 9.66%”; in the assay with NCI-H460 lung (runs of 2016), “active: 8.28, 7.75, 7.78, 8.4, 9.94, 8.66, 8, 8.8, 7.23, 8.75, 5.02, 5.1 (2×), 7.47, 8.01, 3.14, 4.77, 2.74, 4.22, 2.45, 2.6, 5.44, 5.11, 4.96, 7.4, 7.58, 8.57, 6.26, 4.38, 6.17, 7.28, 6.78, 5.87, 7.32, 7.92, 6.77, 7.48, 4.3, 9.93, 8.02, 9.7, 9.31, 9.46, 8.58, 9.32, 7.44, 9.63, 7.76, 9.73, 8.33, 9.11% and inactive: 11.5 (6×), 10.2 (4×), 12.6, 10.7, 12.1 (3×), 10.9, 14.5, 10 (2×), 13.7 (2×), 11.8, 16.4, 15.2, 13.5, 11.7, 11.3, 10.6, 10.4%”; in the assay on NCI-H460 lung (runs of 2017), “inactive: 11.6, 11.3 (2×), 11.5, 13.2% and active: 9.52, 8.85, 7.69, 5.32, 7.22, 6.35, 4.9, 5.62, 7.46, 5.78, 5.02, 5.52, 5.8, 4.44, 7.39, 5.67, 6.1, 7.76, 8.01, 6.01, 5.75 (2×), 9.5, 6.42, 8.4, 6.55, 5.63, 4.96, 6.11, 7.92, 6.03, 9.08, 9.71, 6.88, 3.6, 5.87, 6.47, 6.46, 6.5, 8.8, 7.91, 6.37, 7.36, 7.42, 7.57, 8.33, 7.2 (2×), 6.22, 7.21, 9.33, 9.2, 9.13, 5.6, 7.33, 5.04, 7.52, 6.51, 6.61, 4.87, 5.74, 7.23, 7.88, 8.74, 9.88, 9.68, 6.91, 6.44, 6.92, 9.37, 9.14%”.
